# Test results reported in patent publication US10357514B2, “Treatment of cancer using anti-CD19 Chimeric Antigen Receptor” (The Trustees of the University of Pennsylvania, priority 2014, dated 2019).
# Test system: A/H1N1 strain A/New Jersey/8/76
# Type: in vivo, human
# Conditions: RAD001 cohorts
smiles,measurement,value
"CO[C@H]1C[C@@H]2CC[C@@H](C)[C@@](O)(O2)C(=O)C(=O)N2CCCC[C@H]2C(=O)O[C@H]([C@H](C)C[C@@H]2CC[C@@H](OCCO)[C@H](OC)C2)CC(=O)[C@H](C)/C=C(\C)[C@@H](O)[C@@H](OC)C(=O)[C@H](C)C[C@H](C)/C=C/C=C/C=C/1C [RAD001, (1R,9S,12S,15R,16E,18R,19R,21R,23S,24E,26E,28E,30S,32S,35R)-1,18-dihydroxy-12-{(1R)-2-[(1S,3R,4R)-4-(2-hydroxyethoxy)-3-methoxycyclohexyl]-1-methylethyl}-19,30-dimethoxy-15,17,21,23,29,35-hexamethyl-11,36-dioxa-4-aza-tricyclo[30.3.1.04,9]hexatriaconta-16,24,26,28-tetraene-2,3,10,14,20-pentaone]",increase in HI GMT ratio for heterologous strain versus placebo,higher
